Test results: PubChem BioAssay AID1346428 (National Center for Advancing Translational Sciences (NCATS), 2018)
Several values for one entry are separate records, joined by “and”; a condition that tells them apart may be missing. Identical values can stand only once. In all, about 48,000 compounds went through this assay and about 1,200 (2.5%) were called active. Another 2% or so got no clear call; they are omitted.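 How the source made its calls: active means activation of at least 60% and not above a set upper limit (about 1 call in 100 departs from these limits); inconclusive means activation of 40% to 60%, or above that upper limit; inactive means activation under 40%.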 This is one part of the list.

target: Probable G-protein coupled receptor 32 (Homo sapiens) (UniProt O75388); assay: qHTS for Agonists of Human Resolvin D1 Receptor DRV1; settings: CHO-K1 GPR32 beta-arrestin PathHunter luminescence, 90 min; at 76.9 µM; hits give high values; zero percent set by DMSO-only wells
UniProt O75388, sequence (O75388 whole entry, looked up): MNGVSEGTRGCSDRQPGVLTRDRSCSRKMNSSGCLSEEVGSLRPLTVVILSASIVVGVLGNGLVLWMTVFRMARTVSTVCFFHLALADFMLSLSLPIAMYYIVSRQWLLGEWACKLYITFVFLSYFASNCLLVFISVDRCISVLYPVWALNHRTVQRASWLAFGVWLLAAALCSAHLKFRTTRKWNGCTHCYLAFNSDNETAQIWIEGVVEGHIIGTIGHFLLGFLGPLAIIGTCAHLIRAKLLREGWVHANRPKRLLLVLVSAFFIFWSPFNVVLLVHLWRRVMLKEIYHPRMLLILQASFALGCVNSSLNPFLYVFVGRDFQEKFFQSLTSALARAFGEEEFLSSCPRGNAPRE
How it was run: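 Using DMSO wells as EC0, agonist-induced signal was taken as chemiluminescence from beta-Gal reconstituted upon beta-arrestin recruitment to GPR32 in CHO-K1 cells after 90 min compound treatment.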

SMILES | activation
CCn1c(=O)c2cc(C(=O)NCCc3ccc(OC)c(OC)c3)sc2c2ccccc21 | inactive: 21.3%
CCOc1ccc(CNC(=O)c2ccc(Sc3ccc(C)cc3)c(N)c2)cc1OC | inactive: -21%
COc1ccc(-c2cc(C(=O)Nc3c(C(=O)c4ccc(C)c(F)c4)oc4ccccc34)no2)cc1 | inactive: -19.3%
COc1ccc(OCC(=O)Nc2ccc3c(c2)N(C)C(=O)c2ccccc2S3)cc1 | inactive: 1.86%
COc1ccc(C(C)=O)cc1CSc1nc(NCc2ccc(Cl)cc2)c2ccccc2n1 | inactive: -15%
O=C(CCS(=O)(=O)c1nc(-c2ccc3c(c2)OCO3)cc(C(F)(F)F)n1)Nc1ccccc1C(F)(F)F | inactive: -6.73%
COC(=O)Cn1c(SCCOc2ccccc2Cl)nc2ccccc21 | inactive: -5.21%
COC(=O)CSc1nnc(-c2cccc(O)c2)o1 | inactive: -9.04%
CCc1ccccc1NC(=O)c1cc(S(=O)(=O)N2CCC(C)CC2)cn1C | inactive: -4.68%
COc1ccc(-c2cc(C(F)(F)F)n3nc(C(=O)Nc4cccc(Cl)c4Cl)cc3n2)cc1OC | inactive: 2.89%
CC1=C(C(=O)Nc2ccc(C)cc2C)C(c2cc(Br)ccc2F)n2ncc(C(=O)Nc3ccc(C)cc3)c2N1 (stereo not drawn) | inactive: -21.6%
CCOC(=O)c1cc(-c2ccc(C)cc2)n(CC(=O)Nc2cc(C)ccc2C)c1C | inactive: -1.96%
CCC1CN(C(=O)N2CCC(C(=O)NCc3ccccc3F)CC2)c2ccccc2O1 (stereo not drawn) | inactive: -7.7%
O=C(Nc1ccc(C(F)(F)F)cc1)C1(c2cccs2)CCOCC1 | inactive: 6.82%
CCCOC(=O)c1cccc(Nc2nc(C(=O)OCC)nc3ccccc23)c1 | active: 92.6%
CC1CCCN(c2ncnc3c2nnn3C)C1 (stereo not drawn) | inactive: -5.09%
COc1ccc(CNC(=O)Cc2ccc(NC(=O)N3CCCCc4ccccc43)cc2)cc1 | inactive: -8.85%
CCOc1ccc(NC(=O)c2cc(S(=O)(=O)N3CCC(C)CC3)cn2C)cc1 | inactive: 23.8%
CC(Oc1ccccc1F)C(=O)NCC1(N2CCOCC2)CCCCC1 (stereo not drawn) | inactive: -18.4%
Cc1ccc(NC(=O)c2c(C)oc3ncnc(N4CCCCC4)c23)c(C)c1 | inactive: -22.5%
Cc1cc(C)cc(NC(=O)c2cc(S(=O)(=O)N3CCCCC3)c[nH]2)c1 | inactive: -6.43%
CC(C)(C)C(=O)OCOP(=O)(COCCn1cnc2c(N)ncnc21)OCOC(=O)C(C)(C)C | inactive: -0.287%
CCc1ccc(NC(=O)c2sc3nc(C)cc(C)c3c2NC(=O)c2ccccc2)cc1 | inactive: -0.593%
COc1ccc(CNC(=O)C2CCN(c3nnc(C)c4c(C)n(-c5ccc(C)cc5)nc34)CC2)cc1 | inactive: 1.02%
Cc1ccccc1NC(=O)C1CCN(S(=O)(=O)c2cccc3nonc23)CC1 | inactive: -2%
COc1ccc(OC)c(-c2cc(C(=O)NCc3ccc(Cl)cc3)no2)c1 | inactive: 4.2%
Cc1ccc(-c2nn3c(C)nnc3c3ccccc23)cc1S(=O)(=O)NC(C)(C)CO | inactive: -13.3%

SMILES | activation
COc1cccc(CNC(=O)Nc2ccc3c(c2)N(C)C(=O)c2ccccc2S3)c1 | inactive: -12.2%
CCOc1ccc(N(C)S(=O)(=O)c2cc(-c3cnc(C)o3)ccc2OC)cc1 | inactive: -20.7%
O=C(Nc1nnc2n1CCS2)c1cc(C(F)(F)F)cc(C(F)(F)F)c1 | inactive: -6.96%
Cc1ccc(C)c(NC(=O)Cn2cc(S(=O)(=O)c3ccc(F)cc3)c(=O)c3cc(F)ccc32)c1 | inactive: 8.78%
CN(C)S(=O)(=O)c1ccc2c(c1)N(CC(=O)N1CCC(C(N)=O)CC1)CCS2 | inactive: 5.24%
COc1ccc(/C=C/C(=O)Nc2cccc(F)c2)cc1 | inactive: 39.1%
CCOC(=O)C1CCCN(S(=O)(=O)c2cc(Br)cc3c2N(C(=O)CC)CC3)C1 (stereo not drawn) | inactive: -1.61%
CCOc1ccc(C2c3[nH]c4ccccc4c3CCN2C(=O)CCC2CCCC2)cc1 (stereo not drawn) | inactive: -33.9%
CCN(CCCNC(=O)CN1N=C(c2ccc(C)cc2)CCC1=O)c1ccccc1 | inactive: -29.9%
O=c1cc(-c2ccccc2)nc(SCc2nc(-c3cccc(C(F)(F)F)c3)no2)[nH]1 | inactive: 1.72%
Cc1nn(-c2ccc(N3CCCCC3)nn2)c(C)c1CCC(=O)Nc1cccc(F)c1 | inactive: 11.7%
Cc1ccn2c(=O)c(NC(=O)c3cccc([N+](=O)[O-])c3C)c(C)nc2c1 | inactive: -12.4%
Fc1ccc(-n2ncc3c(NCCCc4ccccc4)ncnc32)cc1 | inactive: 41.1%
Cc1ccc(COC(=O)c2ccc(-c3nnn(Cc4ccc(C)cc4)n3)cc2)cc1 | inactive: 6.64%
CC(=O)C(Sc1nc(-c2ccccc2Cl)nc2c1c(=O)n(C)c(=O)n2C)C(=O)N(C)C (stereo not drawn) | inactive: -22.2%
CCCCN(CC)C(=O)Cn1cc2c(n1)-c1c(oc(C(=O)N3CCCC3)c1C)CC2 | inactive: -9.92%
CN1CCC(=C2c3ccccc3CC(=O)c3sccc32)CC1 | inactive: -9.33% and inactive: -17.1%
CCC(=O)N1CCc2cc(S(=O)(=O)NC(CC(C)C)C(=O)NCc3cccc(OC)c3)ccc21 (stereo not drawn) | inactive: -7.47%
COc1cccc(C(=O)c2cn(CC(=O)Nc3ccc4c(c3)OCCO4)c3nc(C)ccc3c2=O)c1 | inactive: -14.4%
Cc1ccc(NC(=O)NCc2c(-n3cccc3)sc3c2CCCC3)c(Cl)c1 | inactive: -3.17%
Cc1ccc(CNC(=O)CCCn2nc(C)n3c(cc4sccc43)c2=O)cc1 | inactive: -10.1%
Cc1ccc(CNC(=O)c2cn(C)c3ccc(S(=O)(=O)N4CCC(C)CC4)cc3c2=O)cc1 | inactive: 9.2%
CCN(Cc1ccccc1)S(=O)(=O)c1ccc(F)c(C(=O)Nc2ccc(C(C)C)cc2)c1 | inactive: -14.7%
Cc1cccc(C)c1NC(=O)c1cc2sccc2n1Cc1ccc(F)cc1 | inactive: 33%
COc1cc(NC(=O)C2CCN(S(=O)(=O)c3c(C)noc3/C=C/c3c(C)cc(C)cc3C)CC2)cc(OC)c1 | inactive: -8.91%
COc1ccc(OC)c(CNc2ncc(-c3ccc(Cl)cc3)n2C)c1 | inactive: -71.1%
